Where “and” joins values, the source holds several entries; their conditions need not be identical. Identical values can stand only once. The shares of active, inactive and inconclusive entries below differ from those in the screen. Calls come from the whole dose curve; as a rule, active = well fitted inhibition curve with a large enough effect in the signal ratio in the repeat runs (not every such curve was filed as active); inconclusive = weak or mixed curves; inactive = flat fitted curve, though single readings scatter; the % refers to the signal ratio. A potency beside an inconclusive call is a rough fit, not a confirmed value.
Assay: qHTS assay to identify small molecule antagonists of the TGF-beta/Smad signaling pathway (AID 1346924)
Details: SBE-bla HEK293T, TGF-beta/Smad reporter, beta-lactamase ratio; activity, negative = inhibition: at 76.8 µM (top of the series) unless noted
Summary of the method: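 SBE-bla HEK 293T cells were plated overnight, then received compound in DMSO plus TGF-beta1 (added as a 0.25 ng/mL solution) and were incubated 5 h at 37 C. Beta-lactamase reporter activity was read after 2 h at room temperature with LiveBLAzer B/G FRET substrate (ex 405, em 460/530 nm).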
Potency is the fitted concentration of half-maximal effect; tags give direction and shape of the fitted curve or compound fluorescence and quenching.

Row | SMILES | Potency | activity, negative = inhibition
1 | CN(C)c1ccc(C(=C2C=CC(=[N+](C)C)C=C2)c2ccc(N(C)C)cc2)cc1 | inconclusive: 28.5 µM and inconclusive: 54.9 µM and inconclusive: 26.8 µM | –
2 | C#C[C@]1(O)CC[C@H]2[C@@H]3CCc4cc(OC5CCCC5)ccc4[C@H]3CC[C@@]21C | inconclusive: 16.9 µM [rising, partial curve, poor fit] | –
3 | CNCC[C@H](Oc1cccc2ccccc12)c1cccs1 | – | inconclusive: -14.2% [at 35.3 µM]
4 | O=C(O)CCCCC1CCSS1 (stereo not given) | – | inconclusive: 13.1%
5 | O=Cc1ccccc1C=O | – | inconclusive: 2.22%
6 | CCCCCCCOC(=O)CCC | – | inconclusive: -26.5%
7 | COc1cccc2c1C(=O)c1c(O)c3c(c(O)c1C2=O)C[C@@](O)(C(=O)CO)C[C@@H]3O[C@H]1C[C@H](N)[C@H](O)[C@H](C)O1 | – | inconclusive: 1.08% [at 35.3 µM] and inconclusive: 1.17% [at 35.3 µM]
8 | COC(=O)C1=C(C)NC(COC(N)=O)=C(C(=O)OC(C)C)C1c1cccc(Cl)c1Cl (stereo not given) | – | inconclusive: -2.52% [at 35.3 µM]
9 | Cc1oc(C)c(C(=O)Nc2ccccc2)c1C | – | inconclusive: -31.8%
10 | O=C(CCCN1CCC(O)(c2ccc(Cl)cc2)CC1)c1ccc(F)cc1 | – | inconclusive: -17.4%
11 | CC1(C)CCC(C)(C)c2cc(C(=O)Nc3ccc(C(=O)O)cc3)ccc21 | – | inconclusive: 0.215%
12 | CN(C)c1ccc(N=Nc2ccccc2C(=O)O)cc1 | – | inconclusive: 1.19%
13 | C=C(C)C1CC=C(C)CC1 (stereo not given) | – | inconclusive: -14.1%
14 | Clc1ccc2cc3ccccc3cc2c1 | – | inconclusive: -1.09%
15 | Cc1cccc(Nc2ccccc2)c1 | – | inconclusive: -13.8%
16 | C1CNCCN1 | – | inconclusive: 1.22% and inconclusive: -12.8%
17 | CCCCCCCCCCCCN1CCCCCC1=O | – | inconclusive: -9.03%
18 | O=C1NCCN1CCN1CCC(c2cn(-c3ccc(F)cc3)c3ccc(Cl)cc23)CC1 | inconclusive: 23.9 µM | –

Row | SMILES | Potency | activity, negative = inhibition
19 | N=C1C=CC(=C(c2ccc(N)cc2)c2ccc(N)cc2)C=C1 | inconclusive: 54.9 µM [rising, partial curve, poor fit] | –
20 | Cc1ccc(NC(=O)c2ccc(CN3CCN(C)CC3)cc2)cc1Nc1nccc(-c2cccnc2)n1 | – | inconclusive: 3.8% [at 35.3 µM]
21 | O=C1C=CC(=O)N1 | inconclusive: 63.3 µM [cytotoxic, single point] | –
22 | O=C(O)C1(C(=O)Nc2ccc(Cl)cc2Cl)CC1 | inconclusive: 34.7 µM | –
23 | COC(=O)C1=C(C)NC(C)=C(C(=O)OCCCN2CCC(c3ccccc3)(c3ccccc3)CC2)C1c1cccc([N+](=O)[O-])c1 (stereo not given) | – | inconclusive: -16.7% [at 35.3 µM]
24 | CN(C)CCOC(c1ccccc1)c1ccc(Br)cc1 (stereo not given) | – | inconclusive: -1.82% [at 35.3 µM]
25 | Clc1ccc2c(c1)CCc1cccnc1C2=C1CCNCC1 | – | inconclusive: 0.146% [at 35.3 µM]
26 | COCCCC/C(=N\OCCN)c1ccc(C(F)(F)F)cc1 | – | inconclusive: -12.6% [at 35.3 µM]
27 | Cc1ccc(O)c(O)c1 | – | inconclusive: 10.9%
28 | CCc1c(C(=O)NN2CCCCC2)nn(-c2ccc(Cl)cc2Cl)c1-c1ccc(Br)cc1 | – | inconclusive: 9.01%
29 | CCN(CC)CCNc1ccc(CO)c2sc3ccccc3c(=O)c12 | – | inconclusive: -10.7% [at 35.3 µM]
30 | Cc1cccc2c1cc1ccc3cccc4ccc2c1c34 | inconclusive: 12.6 µM [fluorescent, partial curve] | –
31 | Cc1oc(-c2ccccc2)nc1CCC(=O)c1ccc(CC2SC(=O)NC2=O)cc1 (stereo not given) | inconclusive: 3.38 µM [fluorescent, full curve] | –
32 | C[C@H](CCC(=O)O)[C@H]1CC[C@H]2[C@@H]3[C@H](O)C[C@@H]4C[C@H](O)CC[C@]4(C)[C@H]3CC[C@]12C | – | inconclusive: -17.6%
33 | Cc1cccc(C)c1NC(=O)CN1CCN(CCCC(c2ccc(F)cc2)c2ccc(F)cc2)CC1 | – | inconclusive: -26.1% [at 35.3 µM]
34 | Nc1nc2ccccc2n1Cc1ccc(F)cc1 | – | inconclusive: -15.4% [at 35.3 µM]
35 | CN1CCN(C2Cc3ccccc3Sc3ccc(Cl)cc32)CC1 (stereo not given) | – | inconclusive: -27.2% [at 35.3 µM]

From PubChem BioAssay (Tox21)
